The values that follow come from PubChem BioAssay AID360 (National Center for Advancing Translational Sciences (NCATS), 2006).

Screen size: about 48,000 compounds; about 550 (1.1%) were called active. Roughly 4% stayed inconclusive and do not appear here. No stated cut-off is given here; in the data, active means potency below about 15 µM; inconclusive means mostly about 16 µM to 33 µM; inactive means weaker than that. The list shows a part of the results.
Potency means the concentration at half of the fitted maximal effect.

Chain of UniProt P04062 (P04062 whole entry, looked up): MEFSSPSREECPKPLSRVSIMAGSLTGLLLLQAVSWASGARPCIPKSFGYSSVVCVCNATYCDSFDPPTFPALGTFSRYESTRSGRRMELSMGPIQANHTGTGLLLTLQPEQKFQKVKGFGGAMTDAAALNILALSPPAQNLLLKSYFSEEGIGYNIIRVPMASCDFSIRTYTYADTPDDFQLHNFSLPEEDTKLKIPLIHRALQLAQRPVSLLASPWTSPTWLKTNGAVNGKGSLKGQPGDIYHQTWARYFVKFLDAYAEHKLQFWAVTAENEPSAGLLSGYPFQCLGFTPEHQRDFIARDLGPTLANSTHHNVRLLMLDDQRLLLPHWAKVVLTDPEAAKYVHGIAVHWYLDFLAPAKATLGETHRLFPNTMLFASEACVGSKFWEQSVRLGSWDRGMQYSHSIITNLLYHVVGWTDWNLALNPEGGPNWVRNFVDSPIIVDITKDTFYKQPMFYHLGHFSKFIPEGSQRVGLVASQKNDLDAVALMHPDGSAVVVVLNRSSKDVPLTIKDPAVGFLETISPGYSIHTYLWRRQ

For this assay, the target named is Lysosomal acid glucosylceramidase (Homo sapiens) (UniProt P04062). Nature of the assay: Glucocerebrosidase.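 Further: the screen sought inhibitors.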 As to conditions: purified enzyme, resorufin glucoside fluorescence (screen aimed at inhibitors), 20 min. The text has this:
NCGC Assay Overview: Beta-glucocerebrosidase catalyzes the hydrolysis of beta-glucocerebroside to glucose and ceramide. The inherited deficiency of beta-glucocerebrosidase results in Gaucher disease, which is characterized by a wide variety of symptoms including hepatosplenomegaly, anemia, thrombocytopenia, bony lesions and bone marrow infiltration with characteristic storage cells, known as Gaucher cells. There are also forms of the disorder affecting the central nervous system. Patients with the same genotypes can manifest with diverse clinical presentations and it is believed that improper folding and trafficking of beta-glucocerbrosidase may contribute to the phenotypes observed. Low molecular weight molecules, acting as chaperones, may potentially restore trafficking of misfolded beta-glucocerebrosidase from the endoplasmic reticulum to the lysosomes, thereby enhancing functional lysosomal beta-glucocerebrosidase activity. Using normal beta-glucocerebrosidase, an assay was developed to screen for small molecule inhibitors that could potentially act as molecular chaperones on the mutant forms [developed with NIH investigator Dr. Ellen Sidransky's laboratory]. Two pro-fluorescent substrates were chosen for two screens against a small molecule library. One beta-glucocerebrosidase assay used Resorufin beta-D-Glucopyranoside (Marker Gene Technology Inc.), generating a red fluorescent product. The second assay used Fluorescein di-beta-D-Glucopyranoside, generating a blue fluorescent product. […] The IC50 values of Conduritol B Epoxide, a known glucocerebrosidase inhibitor, were determined to be 87.5 uM and 117 uM, respectively. The use of two difference pro-fluorescent substrates in the screens helped to eliminate false positives. All compounds were screened in a titration series resulting in AC50s (e.g., IC50s or EC50s).
NCGC Assay Protocol Summary: Both enzyme and substrate were diluted in buffer composed of 50mM citric acid/KH2PO4, 10mM sodium taurocholate and 0.01% tween-20 at pH 5.9. The final concentration of the enzyme was 0.2 nM in both assays. The compound library was titrated in 7 to 15 concentrations for the primary screens with a final concentration ranging from 0.6 nM to 50 uM. This particular assay protocol is for the "red" substrate, and it was performed in 1536-well plate format as follows: Red fluorescence substrate assay: 2 uL enzyme 23 nL compound 1 uL substrate (final concentration of 30 uM) Incubate at room temperature (RT) for 20 minutes Read the plate in Viewlux plate reader (Ex=548(7) and Em=600(10)).
For `Cc1cc(C)c2cc(CN(CCO)Cc3nnnn3Cc3ccccc3)c(=O)[nH]c2c1`, the Potency was inactive: > 76.9 µM. With `CCN(CC)CCNC(=O)c1ccc2c(c1)ncn2C1CCCCC1` the figure was inactive: > 76.9 µM; with `O=C(NC1CCCCC1)c1cc2nc3c(c(C(F)(F)F)n2n1)CCCC3`, inactive: > 76.9 µM. `COCCNC(=O)CCSCc1ccccc1F`: the Potency was inactive: > 76.9 µM. For the molecule `O=C(COC(=O)c1ccco1)Nc1nc2ccccc2s1`, the Potency was inactive: > 76.9 µM. As for `O=C(CN1C(=O)NC2(CCCCCCC2)C1=O)N1CCOCC1`, the Potency result was “inactive”.

Take `Cn1cccc1C(C(=O)NC1CCCCC1)N(C(=O)Cc1cccs1)c1ccc2c(c1)OCO2` (stereo not drawn): the Potency was inactive: > 76.9 µM. `COc1ccc(C2C(C(=O)c3sc(C)nc3C)=C(O)C(=O)N2CCCn2ccnc2)cc1` (stereo not drawn): the Potency was inactive: > 76.9 µM. Consider `CCOc1cc2[nH]c(=O)n(CC3CCC(C(=O)NCCCOC)CC3)c(=O)c2cc1OCC` (stereo not drawn), for which the Potency was inactive: > 76.9 µM. As for `COc1cc(C(=O)OCC(=O)NC2CCCC2)cc(NC(=O)c2ccco2)c1OC`, the figure is inactive: > 76.9 µM; as for `O=C(CSc1ccccc1)Nc1ccncc1`, inactive: > 76.9 µM; as for `CCCSc1nnc(CN2CCOCC2)n1C`, inactive: > 76.9 µM. With `c1nc(NCC2(N3CCOCC3)CCCCC2)c2ccsc2n1`, the Potency was inactive: > 76.9 µM. As to `COc1ccc(N2CC(C(=O)Nc3ncccc3C)CC2=O)cc1` (stereo not drawn), the Potency is inactive: > 76.9 µM. On to `N#CCCCCN1c2cccc3cccc(c23)S1(=O)=O`, for which the Potency is inactive: > 76.9 µM. `O=C(c1ccc2ccccc2n1)N1CCN(c2ccccc2)CC1`: the Potency was inactive: > 76.9 µM. Turning to `CC(C)(C)N(Cc1cc2ccccc2[nH]c1=O)C(=O)c1cccnc1`, the Potency was inactive: > 76.9 µM. As for `O=C(CCN1CCCCC1)Nn1c(=S)[nH]c2ccccc2c1=O`, the figure is inactive: > 76.9 µM; as for `CCOC(=O)c1c(NC(=O)COC(=O)Cn2cnc3ccccc32)sc(C)c1C`, inactive: > 76.9 µM. As for `O=C(NCc1ccc(F)cc1)c1c(O)c2cccc3c2n(c1=O)CCC3`, the Potency was inactive: > 76.9 µM. Regarding `Nc1c(C(=O)NCc2ccco2)nnn1-c1ccccc1`, the Potency is inactive: > 76.9 µM. For the molecule `COc1ccc(C(=O)N2CCN(Cc3cc(OC)c(O)c(OC)c3)CC2)cc1OC`, the Potency was inactive: > 76.9 µM.

Consider `CCNc1oc(COc2ccccc2F)nc1C#N`, for which the Potency is inactive: > 76.9 µM. For `Cc1cc(C)n2nc(Nc3ccccc3)cc2n1`, the Potency was inactive: > 76.9 µM.

`CCOC(=O)c1cc(C)n(CCCN2CCOCC2)c1C`: the Potency was inactive: > 76.9 µM. As for `CCCc1[nH]nc2c1C(c1ccc(OC(=O)N3CCOCC3)c(OC)c1)C(C#N)=C(N)O2` (stereo not drawn), the figure is inactive: > 76.9 µM; as for `CCOC(=O)C1CCCN(C(=O)c2cn(C)c(=O)c3cc(OC)c(OC)cc23)C1` (stereo not drawn), inactive: > 76.9 µM; as for `COc1ccc(CC(=O)Nc2ccc(-c3noc(COc4ccccc4C)n3)cc2)cc1`, inactive: > 76.9 µM.

In the case of `NC(=O)CSc1nnnn1-c1ccc(OC(F)(F)F)cc1`, the Potency is inactive: > 76.9 µM. For the molecule `O=C(COC(=O)c1cc(S(=O)(=O)N2CCOCC2)cs1)c1ccccc1`, the Potency is inactive: > 76.9 µM. As to `CCOC(=O)Cc1nnc(NC(=O)Nc2ccccc2)s1`, the Potency is inactive: > 76.9 µM.

As to `O=C(OCC(O)C(O)COC(=O)c1ccccc1)c1ccccc1` (stereo not drawn), the Potency is inactive: > 76.9 µM.

Take `O=C(NCc1n[nH]c(=S)n1-c1ccc(F)cc1)c1ccc(S(=O)(=O)N2CCCC2)cc1`: the Potency is inactive: > 76.9 µM. Consider `COCCN1C(=O)C(=O)/C(=C(/O)c2cccc(S(=O)(=O)N(C)C)c2)C12C(=O)N(C)c1ccccc12` (stereo not drawn), for which the Potency was inactive: > 76.9 µM. As to `Cc1ccc(CNC(=O)CCCOc2cc(=O)n(C)c3ccccc23)o1`, the Potency is inactive: > 76.9 µM. For `Cc1ccccc1Nc1nc(N)nc(COC(=O)c2cccn2C)n1`, the Potency was inactive: > 76.9 µM.

Consider `Cc1ccc(S(=O)(=O)NC(C(=O)OCC(=O)NC(=O)c2cccn2C)C(C)C)cc1` (stereo not drawn), for which the Potency is inactive: > 76.9 µM. With `COC(=O)C1=C(C)NC2=C(C(=O)c3ccccc32)C1c1ccc(-c2ccc(C(=O)O)cc2)o1` (stereo not drawn) the figure was inactive: > 76.9 µM; with `CCCCNC(=O)c1nn(-c2ccccc2OC)c(=O)c2ccccc12`, inactive: > 76.9 µM. Take `Cc1nnc(SCC(=O)Nc2cc(C(F)(F)F)ccc2N2CCOCC2)o1`: the Potency is inactive: > 76.9 µM.

With `CCN1CCCC1CN(Cc1cc2cc(C)cc(C)c2[nH]c1=O)C(=O)Nc1ccccc1OC` (stereo not drawn), the Potency was inactive: > 76.9 µM. As for `CCN(Cc1nc2ccccc2c(=O)[nH]1)Cc1nc2cc(OC)c(OC)cc2c(=O)[nH]1`, the Potency was inactive: > 76.9 µM.

With `CC(=O)c1cc2c(=O)c3cc(C)ccc3oc2nc1C`, the Potency is inactive: > 76.9 µM. With `COc1ccc(CCNC(=O)Cn2cnc3c(cnn3-c3ccccc3Cl)c2=O)cc1OC` the figure was inactive: > 76.9 µM. As to `CC(=O)OC1COC(n2ccc3ccccc32)C(OC(C)=O)C1OC(C)=O` (stereo not drawn), the Potency is inactive: > 76.9 µM. As for `O=C(NCc1ccc2c(c1)OCO2)c1cccnc1`, the figure is inactive: > 76.9 µM.

As for `O=C(Cc1cccs1)NCc1ccc2c(c1)OCO2`, the Potency is inactive: > 76.9 µM.

`Cc1ccc(Cn2c(CN(C)Cc3ccccc3)nc3c2c(=O)n(C)c(=O)n3C)cc1`: the Potency is inactive: > 76.9 µM. On to `N#CC1=C(N)Oc2c(oc(CO)cc2=O)C12C(=O)Nc1ccc(Cl)cc12` (stereo not drawn), for which the Potency is inactive: > 76.9 µM. As for `COc1ccc(N(CC(=O)Nc2cc(C)ccc2OC)S(=O)(=O)c2c(C)noc2C)cc1`, the figure is inactive: > 76.9 µM; as for `CC1(C)Cc2cccc(OCC(O)CNCc3ccccn3)c2O1` (stereo not drawn), inactive: > 76.9 µM.

For the molecule `CCC(=O)c1ccc(OCC(O)CN2CCOCC2)cc1` (stereo not drawn), the Potency was inactive: > 76.9 µM. On to `CCn1cc(C(=O)NCc2ccco2)c2cc(OC)c(OC)cc2c1=O`, for which the Potency is inactive: > 76.9 µM. `CCOc1ccc(OCC)c(NC(=O)C2CCCN(c3ncccn3)C2)c1` (stereo not drawn): the Potency is inactive: > 76.9 µM. Regarding `CC1(c2ccccc2)NC(=O)N(CCN2C(=O)c3ccccc3C2=O)C1=O` (stereo not drawn), the Potency is inactive: > 76.9 µM. Consider `CCN(CC)S(=O)(=O)c1ccc2nnn(OCC(=O)Nc3cccc(C#N)c3)c2c1`, for which the Potency result was “inactive”. For the molecule `COc1ccc(OCCSc2nnc(-c3ccccc3)n2N)cc1`, the Potency was inactive: > 76.9 µM. As to `CCN(C(=O)Cc1cccs1)c1nnc(-c2cc(OC)c(OC)c(OC)c2)s1`, the Potency is inactive: > 76.9 µM.

`CCS(=O)(=O)Nc1ccc(C(=O)OC)cc1`: the Potency was inactive: > 76.9 µM. With `CCCOc1ccc(NC(=O)C2CC(=O)N3CCCN=C3S2)cc1` (stereo not drawn) the figure was inactive: > 76.9 µM; with `O=C(CSc1nc2cc3c(cc2c(=O)n1CCC1=CCCCC1)OCO3)NCc1ccco1`, inactive: > 76.9 µM. For the molecule `CCNC(=O)N1C(CC(=O)OCC)C(=O)NC2CCCCC21` (stereo not drawn), the Potency was inactive: > 76.9 µM. As for `CCC1Oc2ccc(C)cc2N(CC(=O)N(Cc2cccnc2)Cc2ccc(C)o2)C1=O` (stereo not drawn), the Potency result was “inactive”. Take `CCN(CC)c1ccc(NC(=O)CN2CCN(c3nc(C)cc(C)n3)CC2)cc1`: the Potency was inactive: > 76.9 µM.

`CN(C)S(=O)(=O)c1ccc(NC(=O)c2ccccn2)cc1`: the Potency is inactive: > 76.9 µM.

Take `O=C(CN(CCc1ccccc1)C(=O)CNS(=O)(=O)c1ccc(F)cc1)NCc1ccco1`: the Potency is inactive: > 76.9 µM. On to `COc1ccc(C(=O)N2CCC(C(=O)Nc3ccccc3OC)CC2)cc1`, for which the Potency is inactive: > 76.9 µM.

Regarding `COc1ccc(-c2nc(N)n(C(C)=O)n2)cc1`, the Potency was inactive: > 76.9 µM. For `Cc1ccc(CNC(=O)CCCn2c(=O)c3ccccc3n(CC(=O)NCc3ccco3)c2=O)cc1`, the Potency was inactive: > 76.9 µM.

Consider `Clc1ccc(Cc2noc(Cc3ccccc3)n2)cc1Cl`, for which the Potency was inactive: > 76.9 µM.

Consider `CCOC(=O)CNC(=O)CSc1nnc(COc2ccc(Cl)cc2)n1CC`, for which the Potency is inactive: > 76.9 µM. Consider `COc1ccc(-c2nnc3sc(C4CCCCC4)nn23)cc1OC`, for which the Potency is inactive: > 76.9 µM.

For `COc1ccc(C2/C(=C(/O)c3ccccc3)C(=O)C(=O)N2CC(C)O)c(OC)c1` (stereo not drawn), the Potency was inactive: > 76.9 µM.

Regarding `O=C(O)[C@H](Cc1ccccc1)N1C(=O)c2ccncc2C1=O`, the Potency was inactive: > 76.9 µM. On to `CC(=O)c1cc2c(cc1NC(=O)CSc1nc3ccccc3o1)OCO2`, for which the Potency is inactive: > 76.9 µM. With `COc1ccccc1N(CC(O)CN(c1ccccc1)S(C)(=O)=O)S(=O)(=O)c1ccccc1` (stereo not drawn) the figure was inactive: > 76.9 µM; with `CCOC(=O)C1=C(N)n2c(s/c(=C\c3ccco3)c2=O)=C(C(=O)OCC)C1c1ccco1` (stereo not drawn), inactive: > 76.9 µM; with `CC(=O)Nc1nc(C(=O)Nc2c(C)n[nH]c2C)cs1`, inactive: > 76.9 µM. With `Cc1ccc(CNC(=O)Cn2ccc3ccccc3c2=O)o1` the figure was inactive: > 76.9 µM; with `O=C(O)CSC1CC(=O)N(c2ccc(Cl)cc2)C1=O` (stereo not drawn), inactive: > 76.9 µM.

In the case of `Cc1nc2ccccn2c1C(=O)NCc1cccnc1`, the Potency was inactive: > 76.9 µM. As for `CCOc1ccc(OCC)c(NC(=O)CN2CCN(c3ccc(C)cc3C)CC2)c1`, the Potency was inactive: > 76.9 µM. Turning to `Cn1c2ccccc2c2c(C(=O)NCC3CCCO3)cn(C3CCCC3)c(=O)c21` (stereo not drawn), the Potency was inactive: > 76.9 µM.

Regarding `CC(C)CCNC(=O)CN(C(=O)Cn1nnc(-c2ccc(F)cc2)n1)C1CCCC1`, the Potency is inactive: > 76.9 µM.

Take `O=C(NCCCN1CCCC1=O)c1ccc2c(c1)OCO2`: the Potency was inactive: > 76.9 µM. Turning to `CCc1ccc(NC(=O)N(CCCOC(C)C)C2CCN(C(C)=O)CC2)cc1`, the Potency was inactive: > 76.9 µM. For `Cc1ccccc1CS(=O)(=O)Cc1ccc(C(=O)NCc2cccnc2)o1`, the Potency was inactive: > 76.9 µM. As to `O=c1cc[nH]c2cccc(Cc3ccccc3)c12`, the Potency was inactive: > 76.9 µM.
